# Assay results published in article PMC4336329 (PLoS ONE, 2015).
# Hit rate of the full screen: of about 310,000 compounds, about 14,000 (4.5%) showed an effect of 50% or more. The effect is printed as a negative number. The list shows a part of the results.
# Biological target: human ether-à-go-go-related gene (hERG) potassium channel (human, UniProt Q12809)
# Test: primary screen, population patch clamp on CHO cells stably expressing hERG
# 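Also: peak tail current of the secondary pulse compared with the same well before compound.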
# Chain of human ether-à-go-go-related gene (hERG) potassium channel (Q12809 whole entry, looked up): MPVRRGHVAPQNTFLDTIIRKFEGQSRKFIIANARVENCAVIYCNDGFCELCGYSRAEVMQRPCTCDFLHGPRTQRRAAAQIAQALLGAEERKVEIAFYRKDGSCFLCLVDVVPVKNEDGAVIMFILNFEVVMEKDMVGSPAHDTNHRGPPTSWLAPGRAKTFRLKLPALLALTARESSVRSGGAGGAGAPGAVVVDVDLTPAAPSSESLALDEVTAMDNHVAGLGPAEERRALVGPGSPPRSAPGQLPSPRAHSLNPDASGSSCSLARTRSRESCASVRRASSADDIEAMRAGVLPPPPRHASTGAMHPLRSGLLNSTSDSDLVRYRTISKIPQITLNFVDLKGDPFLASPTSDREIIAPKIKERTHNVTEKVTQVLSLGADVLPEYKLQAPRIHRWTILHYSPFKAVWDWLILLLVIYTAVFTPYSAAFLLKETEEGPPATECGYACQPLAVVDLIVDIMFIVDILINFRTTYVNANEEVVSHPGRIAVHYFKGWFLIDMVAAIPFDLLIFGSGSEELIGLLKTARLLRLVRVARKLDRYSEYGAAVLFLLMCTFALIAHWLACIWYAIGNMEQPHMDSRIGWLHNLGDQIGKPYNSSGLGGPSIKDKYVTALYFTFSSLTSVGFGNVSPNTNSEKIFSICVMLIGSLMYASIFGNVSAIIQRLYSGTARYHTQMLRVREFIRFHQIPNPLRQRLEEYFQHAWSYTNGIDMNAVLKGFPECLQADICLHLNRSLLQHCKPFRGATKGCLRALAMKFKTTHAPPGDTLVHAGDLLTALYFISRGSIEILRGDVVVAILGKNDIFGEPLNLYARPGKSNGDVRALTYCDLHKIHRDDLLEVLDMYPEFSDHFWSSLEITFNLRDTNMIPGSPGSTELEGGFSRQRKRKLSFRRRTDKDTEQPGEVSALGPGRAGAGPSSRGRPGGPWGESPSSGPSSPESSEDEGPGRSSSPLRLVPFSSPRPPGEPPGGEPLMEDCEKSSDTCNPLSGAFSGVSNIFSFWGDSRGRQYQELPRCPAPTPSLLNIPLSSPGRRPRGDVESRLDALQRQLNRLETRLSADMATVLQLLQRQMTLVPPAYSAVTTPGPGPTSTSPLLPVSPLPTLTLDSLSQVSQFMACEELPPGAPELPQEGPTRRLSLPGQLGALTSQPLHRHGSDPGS
row,Structure (SMILES),"hERG current change (%, negative = inhibition) at 10uM"
1,CC(=O)Nc1ccc2nc(CN3CCN(CC(C)C)C(CCO)C3)ccc2c1 (stereo not drawn),17%
2,COCCNC(=O)Nc1ccc(F)cc1,-11%
3,O=C(CCSc1nc(-c2ccco2)cc(C(F)(F)F)n1)Nc1ccc2c(c1)OCO2,9.4%
4,Fc1cccc(Cl)c1-c1nnc2ccc3ccccc3n12,10.3%
5,CC(=O)N1CCc2cc(Br)cc(S(=O)(=O)NCCCN3CCCC(C)C3)c21 (stereo not drawn),-0.85%
6,CCN(CC)CCN(C(=O)c1ccc(C(=O)c2ccccc2)cc1)c1nc2ccc(OC)cc2s1.Cl,-45.9%
7,O=C(OCC1OC(n2cnc3c(N(C(=O)c4ccccc4)C(=O)c4ccccc4)ncnc32)C(O)C1F)c1ccccc1 (stereo not drawn),-9.47%
8,COc1ccccc1N(CC(=O)N/N=C/c1c(O)ccc2ccccc12)S(C)(=O)=O,18.3%
9,CN(C)CCN(C(=O)c1ccco1)c1nc2cc3c(cc2s1)OCCO3.Cl,-32.8%
10,Cc1onc(-c2ccccc2Cl)c1C(=O)Nc1ccc(F)c(F)c1,-6.23%
11,Cc1ccc(SCC(=O)c2c(C)nc3ccccn23)cc1,30.8%
12,O=C(CN(Cc1cccs1)S(=O)(=O)c1ccc(S(=O)(=O)N2CCCCC2)cc1)Nc1ccccc1,9.5%
13,O=C(Oc1cccc2cccnc12)c1cccc(-n2cnnn2)c1,14.4%
14,Cc1ccc(NC(=O)C(Nc2ccccc2)c2ccccc2)cc1 (stereo not drawn),-5.85%
15,CCN(CC)c1ccc(C=O)c(OC)c1,-9.16%
16,CC(=O)COc1ccc2c(C)c(C)c(=O)oc2c1,0.254%
17,CCN(CC(=O)NC1CCS(=O)(=O)C1)S(=O)(=O)c1c(C)c(C)cc(C)c1C (stereo not drawn),-3.39%
18,COc1cccc(/C=N/Nc2ncnc3scc(-c4ccccc4)c23)c1OC,-1.08%
19,C=CCSc1nc2c(c(=O)[nH]c(=O)n2C)n1C(C)C,2.71%
20,CC(C)[C@H]1COCCS(=O)(=O)N1Cc1cccc(Cl)c1,0.8%
21,Cc1cc(C(=O)CN2CCCC(C)C2)c(C)n1-c1ccc(F)cc1 (stereo not drawn),1.6%
22,CC(C)Cn1c2c(c(=O)[nH]c1=O)C(NS(=O)(=O)c1ccc(Cl)cc1)(C(F)(F)F)C(=O)N2 (stereo not drawn),34.2%

row,Structure (SMILES),"hERG current change (%, negative = inhibition) at 10uM"
1,COc1ccccc1C(=O)Nc1c2c(nn1-c1ccc([N+](=O)[O-])cc1)CS(=O)(=O)C2,11.7%
2,CN(C)S(=O)(=O)c1ccc(C(=O)N2CCN(S(=O)(=O)c3cccs3)CC2)cc1,12.6%
3,Cc1ccc(-c2csc3ncnc(-n4nnc5ccccc54)c23)cc1C,-8.24%
4,Cc1ccc(Cl)cc1N1CCN(Cc2nnnn2Cc2ccco2)CC1,-37.9%
5,CC(C)CCN1NC2(CCC(C)CC2)NC1=S (stereo not drawn),0.837%
6,CC(=O)OCC(=O)Nc1c(C)cc(C)cc1C,-0.754%
7,CC(=O)N1CCC(O)(c2ccc3c(c2)OCO3)CC1,16.7%
8,O=C(CC1(O)C(=O)N(Cc2ccccc2Cl)c2ccccc21)c1ccco1 (stereo not drawn),-40.4%
9,O=C1CCCC(=O)C1C1c2ccccc2CCN1C(=O)CCl (stereo not drawn),15.1%
10,CCCCc1ccc(-c2nc(N)n[nH]2)cc1,6.27%
11,O=C(CO/N=C/c1cccc([N+](=O)[O-])c1)NC1CCCCCC1,-20.7%
12,CN(C(=O)C1CCCCC1)C1CCS(=O)(=O)C1 (stereo not drawn),-15.3%
13,Cc1nnc(SCc2cc([N+](=O)[O-])cc3c2OCOC3)[nH]c1=O,3.87%
14,COc1ccc(CC(=O)NC(C)C2COc3ccccc3O2)cc1OC (stereo not drawn),-0.81%
15,CCC(C)NC(=O)c1cn(CC)c2cc(N3CCN(C(=O)c4ccco4)CC3)c(F)cc2c1=O (stereo not drawn),-55.2%
16,CCN(CCO)C(=O)c1ccc2nc(Cc3ccc(OC)cc3)oc2c1,8.84%
17,CC(=O)Oc1ccc(CCC(C)OC(C)=O)cc1 (stereo not drawn),3.79%
18,CCc1nnc(NC(=O)C2CCCN(c3nc(C)cc(C)n3)C2)s1 (stereo not drawn),-23.3%
19,CC(=O)N1c2ccccc2C(=O)C1N(C)c1ccc(C)cc1 (stereo not drawn),1.21%
20,CCCCn1c(N)c(N(CCOC)C(=O)COC(=O)COc2cc(C)ccc2Cl)c(=O)[nH]c1=O,24.3%
21,Cc1ccc(S(=O)(=O)N2CCC(C(=O)N3CCC[C@H]3C(=O)NCC(C)C)CC2)cc1,13.8%
22,COc1c(S(=O)(=O)N2CCN(C)CC2)ccc(Cl)c1Cl,13.7%

row,Structure (SMILES),"hERG current change (%, negative = inhibition) at 10uM"
1,COc1ccc(C2CC(c3ccc(F)cc3)Nc3nc(N)nn32)cc1OC (stereo not drawn),-8.42%
2,COc1ccc(-n2c(=O)c3ccccc3n(CC(=O)NC3CCCCC3)c2=O)cc1OC,7.46%
3,COc1cc(/C=C2/SC(=O)NC2=O)ccc1Oc1ccc([N+](=O)[O-])cc1[N+](=O)[O-],9.34%
4,O=C(Cc1ccccc1F)Nc1nc(-c2ccc(F)cc2)cs1,-3.01%
5,CCOC(=O)CN1C(c2ccccc2O)Nc2ccc(Br)cc2C1c1ccccc1 (stereo not drawn),-7.83%
6,COc1cc(/C=N/NC(=O)C(=O)NCc2ccco2)cc(Br)c1O,2.7%
7,Cc1cc(C)n(C(=O)c2ccc(S(=O)(=O)NCC3CCCO3)cc2)n1 (stereo not drawn),-14.8%
8,O=C(NCc1nnc(SCC(=O)N2CCCC2)o1)c1ccc(F)cc1,14.3%
9,CN(C)S(=O)(=O)Oc1ccc(Cl)cc1C(=O)Nc1cccc(C(F)(F)F)c1,-9.06%
10,CCC(c1nnnn1Cc1ccc(F)cc1)N1CCN(C2CCCCC2)CC1.Cl (stereo not drawn),-53%
11,O=C(O)c1ccccc1-c1ccccc1C(=O)Nc1ccc(-c2nc3cc(Cl)ccc3o2)cc1,35.9%
12,Cc1ccc(CNC(=O)CSc2nc3ccsc3c(=O)n2NC(=O)c2ccccc2)cc1,-9.41%
13,CCc1cn([C@H]2C[C@H](O)[C@@H](CO)O2)c(=O)[nH]c1=O,7.05%
14,CCc1cccc(NC(=O)Nc2cccs2)c1,12.9%
15,C=CCNc1nc(-c2ccc(OC)cc2OC)cs1.Cl,-14.4%
16,Cc1c(Cl)cnc(NC(=O)COC(=O)c2ccc3ncsc3c2)c1Cl,-2.49%
17,COCCN1C(=O)c2ccc(C(=O)O)cc2C1=O,14.6%
18,CCOc1cccc(C(=O)N/N=C/c2coc3ccccc3c2=O)c1,10.6%
19,Cc1ccccc1NC(=O)CC1C(=O)NCCN1C(=O)c1cccc(Cl)c1 (stereo not drawn),15.7%
20,CCc1c(C)nc(N)nc1N1N=C1SCCOc1ccccc1,-4.86%
21,COc1ccc(S(=O)(=O)N(Cc2ccc(OC)c(OC)c2)Cc2ccco2)cc1,-25.3%
22,O=C1C2Sc3[nH]c(=O)sc3C(c3cc([N+](=O)[O-])ccc3O)C2C(=O)N1c1ccccc1 (stereo not drawn),8.68%

row,Structure (SMILES),"hERG current change (%, negative = inhibition) at 10uM"
1,Cc1ccc(S(=O)(=O)NCC(=O)N2CCN(S(=O)(=O)c3ccc(Cl)cc3)CC2)cc1C,6.6%
2,Cc1ccc(-n2nc(C)c(C(=O)Nc3cccc(C(=O)NC4CC4)c3)n2)c(C)c1,7.57%
3,Cc1c(/C(O)=C2\C(=O)C(=O)N(CCN(C)C)C2c2ccccc2)cnn1-c1ccccc1 (stereo not drawn),17.2%
4,Cc1sc2ncnc(SCC(=O)c3ccc4c(c3)OCCO4)c2c1-c1ccccc1,-8.25%
5,O=C(COC(=O)c1cc(S(=O)(=O)N2CCOCC2)ccc1O)NCC1CCCO1 (stereo not drawn),-0.0925%
6,C=CCc1c(C)nc(C)nc1N/N=C/c1ccc(N(C)C)cc1,-32.6%
7,O=C(CSC(=S)N1CCCC1)N1CCN(S(=O)(=O)c2cccc([N+](=O)[O-])c2)CC1,5.69%
8,COc1ccc2cc(/C=N/NC(=O)c3c(Cl)cnn3C)c(Cl)nc2c1,9.69%
9,CC1=C(C(N)=O)C(c2ccccc2)n2nc(-c3cccs3)nc2N1 (stereo not drawn),-6.66%
10,COc1cccc(CN2CCN(Cc3cccc4c3OCO4)CC2CCO)c1 (stereo not drawn),-23.2%
11,COc1ccccc1/C=C/CN1CCCC(CO)(CCc2ccccc2)C1 (stereo not drawn),-74.7%
12,Cc1nc([N+](=O)[O-])c(N2CCN(C)CC2)n1Cc1ccccc1,-10.4%
13,CC(=O)c1c(C)[nH]c(C(=O)N2CCN(C(=O)c3ccco3)CC2)c1C,14.2%
14,C/C(=N\NC(=S)NC(C)C)c1ccccc1,-9.16%
15,COc1ccc(CNc2ncccc2[N+](=O)[O-])cc1,4.68%
16,Cc1noc(C)c1COC(=O)c1ccc(N(C)C)cc1,-9.83%
17,CCCC(=O)Nc1ccc(-c2nc3cc(C)c(C)cc3o2)cc1,13.8%
18,Cc1cc(C)nc(NS(=O)(=O)c2ccc(NS(=O)(=O)c3ccccc3)cc2)n1,1.59%
19,CC(C)(C)NC(=O)C1CC(=O)N(CCc2ccc(F)cc2)C1 (stereo not drawn),15.7%
20,Cc1nc(SCC(N)=O)c(C#N)c(C)c1C,9.82%
21,O=S(=O)(Nc1cccc(S(=O)(=O)N2CCOCC2)c1)c1ccc2c(c1)OCCO2,5.32%
